Counter-ions that a name gives are not always drawn. ± gives the standard deviation of the averaged measurements. The full ranking holds about 1,300 compounds; the median of “normalised cell viability” is about 1, and the lowest 2% start at about 0.14. The list shows a part of the results.
System: V-C8 (BRCA2-deficient hamster cells)
Assay: normalised cell viability (fraction of plate median); higher = more viable cells (less toxic)
Details: 5 µM
How it was run: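 Cell viability was measured with a resazurin assay, normalised to the plate median (modified robust per cent of sample) and averaged over triplicate wells. Hamster V-C8 cells lacking BRCA2 and V-C8 cells with BRCA2 restored were seeded in 96-well plates. After 24 h, library drugs from 10 mM DMSO stocks were added at a final 5 μM in 100 μl medium and left for 3 days (screen 1) or 6 days (screen 2), with solvent-only wells alongside.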

Compound | normalised cell viability (treatment time: 3 days) | normalised cell viability (treatment time: 6 days)
CCCc1nc(C)c2c(=O)nc(-c3cc(S(=O)(=O)N4CCN(CC)CC4)ccc3OCC)[nH]n12 [Vardenafil] | 1.04 ± 0.023 | 1.02 ± 0.07
O=C(O)/C=C/c1ccc(Cn2ccnc2)cc1 [Ozagrel hydrochloride] | 1 ± 0.036 | 1.05 ± 0.017
O=C(O)COC(=O)Cc1ccccc1Nc1c(Cl)cccc1Cl [Aceclofenac] | 0.96 ± 0.052 | 1 ± 0.084
Cc1cnc(NC(=O)C2=C(O)c3ccccc3S(=O)(=O)N2C)s1 [Meloxicam] | 0.991 ± 0.03 | 1.07 ± 0.14
CC1CC(OC(=O)C(O)c2ccccc2)CC(C)(C)N1C (configuration not stated) [Eucatropine hydrochloride] | 0.835 ± 0.071 | 0.9509 ± 0.0083
CCN1CCC[C@H]1CNC(=O)c1c(OC)ccc(Br)c1OC [Remoxipride Hydrochloride] | 1.01 ± 0.021 | 1.08 ± 0.027
CCN1CCN(c2cc3c(cc2F)c(=O)c(C(=O)O)cn3C2CC2)CC1 [Enrofloxacin] | 0.973 ± 0.026 | 0.925 ± 0.069
Cc1nnc(NS(=O)(=O)c2ccc(N)cc2)s1 [Sulfamethizole] | 1.06 ± 0.038 | 1.1 ± 0.03
Nc1cc(C(Cl)=C(Cl)Cl)c(S(N)(=O)=O)cc1S(N)(=O)=O [Clorsulon] | 1.02 ± 0.022 | 0.999 ± 0.051
CC[C@H](C)C(=O)O[C@H]1CCC=C2C=C[C@H](C)[C@H](CC[C@@H]3C[C@@H](O)CC(=O)O3)[C@H]21 [Mevastatin] | 0.23 ± 0.011 | 0.229 ± 0.0063
COc1c2occc2c(OC)c2c(=O)cc(C)oc12 [Khellin] | 1.04 ± 0.094 | 1.17 ± 0.051
CC(=O)OCC(CCn1cnc2cnc(N)nc21)COC(C)=O [Famciclovir] | 1.07 ± 0.061 | 1.04 ± 0.014
NNc1nncc2ccccc12 [Hydralazine hydrochloride] | 0.9847 ± 0.0028 | 1.03 ± 0.027
CN1CCN(c2c(F)cc3c(=O)c(C(=O)O)cn(CCF)c3c2F)CC1 [Fleroxacin] | 0.982 ± 0.046 | 0.977 ± 0.051
C[C@H](CCC(=O)O)[C@H]1CC[C@H]2[C@@H]3[C@H](O)C[C@@H]4C[C@H](O)CC[C@]4(C)[C@H]3CC[C@]12C [Chenodiol] | 1.08 ± 0.025 | 1.21 ± 0.34
CN1CCN(CCCN2c3ccccc3Sc3ccc(Cl)cc32)CC1 [Prochlorperazine dimaleate] | 0.834 ± 0.081 | 0.812 ± 0.075
Cc1nc(=O)c2cc(CN(C)c3ccc(C(=O)N[C@@H](CCC(=O)O)C(=O)O)s3)ccc2[nH]1 [Raltitrexed] | 0.332 ± 0.028 | 0.432 ± 0.075
O=c1oc2ccccc2c(O)c1Cc1c(O)c2ccccc2oc1=O [Dicumarol] | 1.01 ± 0.047 | 1.08 ± 0.08
CC(C)NC[C@@H](O)COc1cccc2ccccc12 [(R)-Propranolol hydrochloride] | 0.914 ± 0.085 | 1.06 ± 0.085
CCN(CC)CCc1nc(-c2ccccc2)no1 [Oxalamine citrate salt] | 0.986 ± 0.061 | 0.933 ± 0.14
CNCC(O)c1ccc(OC(=O)C(C)(C)C)c(OC(=O)C(C)(C)C)c1 (configuration not stated) [Dipivefrin hydrochloride] | 0.831 ± 0.066 | 0.954 ± 0.069
CC(C)NCC(O)c1ccc(O)c(O)c1 (single isomer, unassigned; (+)) [(+)-Isoproterenol (+)-bitartrate salt] | 1.028 ± 0.0063 | 0.926 ± 0.063

Compound | normalised cell viability (treatment time: 3 days) | normalised cell viability (treatment time: 6 days)
CC(NCCC(c1ccccc1)c1ccccc1)c1ccccc1 (configuration not stated) [Fendiline hydrochloride] | 0.197 ± 0.018 | 0.496 ± 0.16
O=c1[nH]c(=O)n(C2CCCO2)cc1F (configuration not stated) [Tegafur] | 1.04 ± 0.044 | 1.15 ± 0.13
Cc1c(N(C)CS(=O)(=O)O)c(=O)n(-c2ccccc2)n1C [Dipyrone] | 0.914 ± 0.028 | 0.876 ± 0.052
CN(C)c1nc(N(C)C)nc(N(C)C)n1 [Altretamine] | 1.05 ± 0.052 | 1.03 ± 0.057
Nc1nc2n[nH]nc2c(=O)[nH]1 [Azaguanine-8] | 0.846 ± 0.048 | 0.857 ± 0.029
CC(C)NCC(O)c1ccc2ccccc2c1 (configuration not stated) [Pronethalol hydrochloride] | 1.04 ± 0.3 | 1.07 ± 0.042
C[C@H]1C[C@@H]2[C@H]([C@@H](O)C[C@@]3(C)[C@H]2CC[C@]3(O)C(=O)CO)[C@@]2(C)C=CC(=O)C=C12 [Methylprednisolone, 6-alpha] | 1.02 ± 0.068 | 1.01 ± 0.061
COc1ccccc1OCC(O)CN1CCN(CC(=O)Nc2c(C)cccc2C)CC1 (configuration not stated) [Ranolazine] | 1.04 ± 0.054 | 0.967 ± 0.086
COc1cc([C@@H]2c3cc4c(cc3[C@@H](O[C@@H]3O[C@@H]5CO[C@@H](C)O[C@H]5[C@H](O)[C@H]3O)[C@H]3COC(=O)[C@H]23)OCO4)cc(OC)c1O [Etoposide] | 0.155 ± 0.0057 | 0.133 ± 0.017
CCCNCC(O)COc1ccccc1C(=O)CCc1ccccc1 (configuration not stated) [Propafenone hydrochloride] | 0.29 ± 0.019 | 0.388 ± 0.014
COc1ccc(C2CNC(=O)C2)cc1OC1CCCC1 (configuration not stated) [Rolipram] | 1.01 ± 0.044 | 1.02 ± 0.026
c1ccc([C@H]2CN3CCSC3=N2)cc1 [Levamisole hydrochloride] | 1.03 ± 0.02 | 1.02 ± 0.032
CCC(=O)O[C@]1(C(=O)CCl)[C@@H](C)C[C@H]2[C@@H]3CCC4=CC(=O)C=C[C@]4(C)[C@@]3(F)[C@@H](O)C[C@@]21C [Clobetasol propionate] | 0.935 ± 0.066 | 0.987 ± 0.074
O=S(=O)(O)c1cc(O)ccc1O [Ethamsylate] | 1.03 ± 0.033 | 0.866 ± 0.07
O=C1OCCN1/N=C/c1ccc([N+](=O)[O-])o1 [Furazolidone] | 0.599 ± 0.051 | 0.486 ± 0.018
CCCCc1cc2ccccc2c(OCCN(C)C)n1 [Dimethisoquin hydrochloride] | 1.03 ± 0.087 | 1.04 ± 0.05
CC(C(=O)O)c1ccc2c(c1)[nH]c1ccc(Cl)cc12 (configuration not stated) [Carprofen] | 1.06 ± 0.053 | 1 ± 0.046
Cc1cccc(C)c1NC(=O)C(C)N (configuration not stated) [Tocainide hydrochloride] | 1.05 ± 0.017 | 1.09 ± 0.061
CN(C)C(=O)C(CCN1CCC(O)(c2ccc(Cl)cc2)CC1)(c1ccccc1)c1ccccc1 [Loperamide hydrochloride] | 0.492 ± 0.027 | 0.452 ± 0.024
O=C(OCC(O)CO)c1ccccc1Nc1ccnc2cc(Cl)ccc12 (configuration not stated) [Glafenine hydrochloride] | 1 ± 0.056 | 0.972 ± 0.034
CC(C(=O)O)c1ccc(-c2ccccc2)c(F)c1 (configuration not stated) [Flurbiprofen] | 1.01 ± 0.025 | 0.991 ± 0.027
COc1cc([S+](C)[O-])ccc1-c1nc2cccnc2[nH]1 (configuration not stated) [Sulmazole] | 1.06 ± 0.037 | 1.03 ± 0.13

Compound | normalised cell viability (treatment time: 3 days) | normalised cell viability (treatment time: 6 days)
C[C@H]1O[C@@H](O[C@H]2[C@@H](O)C[C@H](O[C@H]3[C@@H](O)C[C@H](O[C@H]4CC[C@@]5(C)[C@H](CC[C@@H]6[C@@H]5C[C@@H](O)[C@]5(C)[C@@H](C7=CC(=O)OC7)CC[C@]65O)C4)O[C@@H]3C)O[C@@H]2C)C[C@H](O)[C@@H]1O [Digoxin] | 1.002 ± 0.0042 | 0.931 ± 0.027
CC(=O)[C@H]1CC[C@H]2[C@@H]3C=CC4=CC(=O)CC[C@@]4(C)[C@@H]3CC[C@]12C [Dydrogesterone] | 1.04 ± 0.015 | 1.12 ± 0.012
NC[C@@H]1O[C@H](O[C@H]2[C@@H](O)[C@H](O[C@@H]3[C@@H](O)[C@H](N)C[C@H](N)[C@H]3O[C@H]3O[C@H](CO)[C@@H](O)[C@H](O)[C@H]3N)O[C@@H]2CO)[C@H](N)[C@@H](O)[C@@H]1O [Paromomycin sulfate] | 1.02 ± 0.0077 | 1.05 ± 0.025
COc1ccccc1OCC(O)CO (configuration not stated) [Guaifenesin] | 1.05 ± 0.022 | 0.974 ± 0.16
Cc1cccc(C)c1OCC(C)N (configuration not stated) [Mexiletine hydrochloride] | 0.915 ± 0.09 | 0.985 ± 0.066
CN1[C@@H]2CC[C@H]1C[C@@H](OC(=O)c1c[nH]c3ccccc13)C2 [Tropisetron HCl] | 1.08 ± 0.056 | 1.27 ± 0.015
CCOC(=O)C1=C(COCCN)NC(C)=C(C(=O)OC)C1c1ccccc1Cl (configuration not stated) [Amlodipine] | 0.874 ± 0.12 | 0.844 ± 0.046
COc1ccc(/C=C/C(=O)Nc2ccccc2C(=O)O)cc1OC [Tranilast] | 0.949 ± 0.048 | 1.05 ± 0.025
Cc1c(N(C)C)c(=O)n(-c2ccccc2)n1C [Amidopyrine] | 0.97 ± 0.012 | 0.987 ± 0.052
Oc1c(Cl)cc(Cl)c(Cl)c1Cc1c(O)c(Cl)cc(Cl)c1Cl [Hexachlorophene] | 0.558 ± 0.038 | 0.592 ± 0.066
CC[C@H](C)[C@H](N)C1=N[C@H](C(=O)N[C@@H](CC(C)C)C(=O)N[C@H](CCC(=O)O)C(=O)N[C@H](C(=O)N[C@H]2CCCCNC(=O)[C@H](CC(N)=O)NC(=O)[C@@H](CC(=O)O)NC(=O)[C@H](Cc3cnc[nH]3)NC(=O)[C@@H](Cc3ccccc3)NC(=O)[C@H]([C@@H](C)CC)NC(=O)[C@@H](CCCN)NC2=O)[C@@H](C)CC)CS1 [Bacitracin] | 1.05 ± 0.02 | 0.983 ± 0.061
CN1CCN(CCCN2c3ccccc3Sc3ccc(C(F)(F)F)cc32)CC1 [Trifluoperazine dihydrochloride] | 0.618 ± 0.023 | 0.688 ± 0.02
COc1ccc(OC)c(C(O)CNC(=O)CN)c1 (configuration not stated) [Midodrine hydrochloride] | 0.991 ± 0.086 | 1.07 ± 0.069
CN(C)CCN1C(=O)c2ccccc2N(C)c2ccccc21 [Dibenzepine hydrochloride] | 0.191 ± 0.011 | 0.215 ± 0.0073
CN(C(=O)C(Cl)Cl)c1ccc(OC(=O)c2ccco2)cc1 [Diloxanide furoate] | 1.02 ± 0.036 | 1 ± 0.038
Nc1ccn([C@H]2CC[C@@H](CO)O2)c(=O)n1 [Zalcitabine] | 1.02 ± 0.059 | 1.04 ± 0.044
Oc1c(I)cc(Cl)c2cccnc12 [Clioquinol] | 0.847 ± 0.052 | 0.949 ± 0.026
CC(C)(C#N)c1cc(Cn2cncn2)cc(C(C)(C)C#N)c1 [Anastrozole] | 1.01 ± 0.016 | 1.01 ± 0.082
CN(C)CCOC(C)(c1ccccc1)c1ccccn1 (configuration not stated) [Doxylamine succinate] | 1.03 ± 0.019 | 1.05 ± 0.017
CC(=O)c1ccc2c(c1)N(CCCN(C)C)c1ccccc1S2 [Acetopromazine maleate salt] | 1.06 ± 0.035 | 1.02 ± 0.059
O=C(C1CCCCC1)N1CC(=O)N2CCc3ccccc3C2C1 (configuration not stated) [Praziquantel] | 1.11 ± 0.077 | 1 ± 0.23
C(=C\c1ccccc1)/CN1CCN(C(c2ccccc2)c2ccccc2)CC1 [Cinnarizine] | 0.976 ± 0.044 | 0.983 ± 0.076

Reference: the supplement of paper PMC6609913
